{"source": "PubChem BioAssay (Tox21)", "note": "Where “and” joins values, the source holds several entries; their conditions need not be identical. Identical values can stand only once. This list was built around the results that the source calls inconclusive (neither active nor inactive); the mix of calls is not that of the screen. Potencies beside an inconclusive call are fits to weak or partial responses and may not hold up. Calls of active or inactive are those of the source. The call rests on the fitted dose curve; in most records, active means well fitted cell-killing curve with a large enough effect in the repeat runs; inconclusive means weak or mixed curves, or effect the other way; inactive means no such curve, though single readings can be large or run the other way. Potency means the concentration at half of the fitted maximal effect; tags describe the fitted curve by direction and shape."}
{"experiment": "qHTS assay to identify small molecule antagonists of the vitamin D receptor (VDR) signaling pathway - cell viability counter screen (AID 743225); further: nearly all actives have a fitted effect of over 50% in size", "details": "VDR-bla HEK293T viability, CellTiter-Glo luminescence, 16 h; series mostly up to 61 µM", "summary_of_the_method": "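VDR-bla HEK 293T cells, 4 h pre-incubation at 37C, then compound plus 1-alpha,25-dihydroxyvitamin D3 (3 nM final) for 16 h. After the beta-lactamase FRET read, CellTiter-Glo was added to the same wells; luminescence after 30 min at room temperature.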"}
{"smiles": "C[C@H]1O[C@@H](O[C@H]2CC[C@@]3(C)[C@H](CC[C@@H]4[C@@H]3C[C@@H](O)[C@]3(C)[C@@H](C5=CC(=O)OC5)CC[C@]43O)C2)C[C@H](O)[C@@H]1O[C@H]1C[C@H](O)[C@H](O[C@H]2C[C@H](O)[C@H](O[C@@H]3O[C@H](CO)[C@@H](O)[C@H](O)[C@H]3O)[C@@H](C)O2)[C@@H](C)O1", "Potency": "active: 0.338 µM"}
{"smiles": "COc1cc(-c2nc(NC(=O)c3cc4cc(C)cc(C)c4n3CC(=O)O)sc2CCC2CCCCC2)c(OC)cc1Cl", "Potency": "active: 10 µM"}
{"smiles": "CCCCC(CC)CN=C(N)NC(N)=NCCCCCCN=C(N)NC(N)=NCC(CC)CCCC", "note": "(stereo unspecified)", "Potency": "active: 7.56 µM"}
{"smiles": "Cc1ccc(-c2cc(C(F)(F)F)nn2-c2ccc(S(N)(=O)=O)cc2)cc1", "Potency": "active: 48.8 µM and inconclusive: 54.9 µM [cytotoxic] and inconclusive: 26.8 µM [cytotoxic, single point]"}
{"smiles": "CC1=CC(=O)c2ccccc2C1=O", "Potency": "active: 17.4 µM and active: 21.3 µM"}
{"smiles": "CC(CN1c2ccccc2Sc2ccccc21)N(C)C", "note": "(stereo unspecified)", "Potency": "inconclusive: 31.2 µM [cytotoxic, partial curve, poor fit] and active: 21.9 µM and inconclusive: 26.8 µM [cytotoxic, partial curve, poor fit]"}
{"smiles": "CN(C)C(=O)C1(N2CCCCC2)CCN(CC[C@@]2(c3ccc(Cl)c(Cl)c3)CN(C(=O)c3ccccc3)CCO2)CC1", "Potency": "active: 22.9 µM"}
{"smiles": "CCCCCCCCCCCCCCCCCC[N+](C)(C)C", "Potency": "active: 3.9 µM"}
{"smiles": "CCN(CC)C(=S)SSC(=S)N(CC)CC", "Potency": "inconclusive: 2.51 µM [cytotoxic, full curve, poor fit] and inconclusive: 10.7 µM [cytotoxic, partial curve, poor fit]"}
{"smiles": "CC(O)(c1ccc(Cl)cc1)c1ccc(Cl)cc1", "Potency": "inconclusive: 43.6 µM [cytotoxic, partial curve]"}
{"smiles": "Cc1cc(F)ccc1-c1cc(N2CC[C@@H](O)[C@H]2CO)ncc1N(C)C(=O)C(C)(C)c1cc(C(F)(F)F)cc(C(F)(F)F)c1", "Potency": "active: 13.6 µM"}
